In paper PMC9930443 (2022) one finds cleaved bond data, which are given here for two sequences.

The subject of the data set is Trypsin. Description: trypsin in 100mM Tris pH 7.8. The conditions noted are these: 37C, up to 25h.

Take SEMRLEKDRFSVNL: the cleaved bond entry is on record as “Lys7-Asp8, major”. On to SEMRLEKDRFSVNL (D-isoAsp-8), for which the cleaved bond entry is reported as “Arg4-L5, major”.
